#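 1) Cells in 96-well plates. 2) Compound, 48 h, 5 concentrations. 3) Linear interpolation between surrounding doses. 4) Unreached endpoint = highest concentration. The concentration for 50% growth inhibition is given as GI50. At the TGI there is no net growth.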
# System: NCI-H322M lung
# Test: growth of human tumour cells (NCI), 48 h
Structure (SMILES),GI50,TGI
ClC(Cn1ncc2c(Nc3cccc(Br)c3)nc(SCCN3CCOCC3)nc21)c1ccc(Br)cc1 (stereo unspecified),41.4 µM,> 100 µM
COc1ccc2[nH]c(=O)cc(-n3ncc(C(=O)/C=C/c4cc(OC)c(OC)c(OC)c4)c3C)c2c1,9.03 µM,21.2 µM
COc1cc(/C=C/C(=O)c2cc(OC)c(OC)c(OC)c2)ccc1Oc1nc(Nc2ccc(F)cc2)nc(N(C)C)n1,2.99 µM,20.9 µM

# Reference: PubChem BioAssay (NCI)
